{"source": "the antibiotic and cytotoxicity screens of Wong et al. (2023)", "note": "This is one part of the list.", "data": [{"tested_on": "HepG2", "experiment": "cytotoxicity call (relative viability < 0.9)", "conditions": "10 µM", "values": [{"smiles": "Cc1ccc(S(=O)(=O)N(C)C[C@H]2Oc3c(NC(=O)C4CCOCC4)cccc3C(=O)N([C@H](C)CO)C[C@H]2C)cc1", "cytotoxicity call": "inactive"}, {"smiles": "CC(=O)c1c(O)cc(O)cc1CC(=O)O", "cytotoxicity call": "inactive"}, {"smiles": "C[C@H]1CN([C@@H](C)CO)S(=O)(=O)c2ccc(C#Cc3ccccc3F)cc2O[C@H]1CN(C)CC1CCOCC1", "cytotoxicity call": "inactive"}, {"smiles": "Cc1ccc(S(=O)(=O)N(C)C[C@@H]2OCCCC[C@H](C)Oc3ccc(NC(=O)Nc4ccc(C(F)(F)F)cc4)cc3C(=O)N([C@@H](C)CO)C[C@@H]2C)cc1", "cytotoxicity call": "inactive"}, {"smiles": "CCCNC(=O)Nc1ccc2c(c1)C(=O)N(C)C[C@@H](OC)[C@H](C)CN(C(=O)C1CCOCC1)[C@H](C)CO2", "cytotoxicity call": "inactive"}, {"smiles": "Cc1ccc(S[C@]2(C(=O)NCCN3CCOCC3)CC(=O)N(C(C)C)[C@@H]2c2ccc(CO)cc2)cc1", "cytotoxicity call": "inactive"}, {"smiles": "C[C@H](CO)N1C[C@H](C)[C@H](CN(C)C(=O)Cc2cccnc2)Oc2ncc(C#Cc3ccccc3F)cc2C1=O", "cytotoxicity call": "inactive"}, {"smiles": "C[C@H]1CN([C@@H](C)CO)C(=O)Cc2cc(NS(=O)(=O)c3cn(C)cn3)ccc2O[C@H]1CN(C)CC1CC1", "cytotoxicity call": "inactive"}]}, {"tested_on": "S. aureus RN4220", "experiment": "growth inhibition call (relative growth <= 0.2)", "conditions": "50 µM", "values": [{"smiles": "Cc1noc(C)c1S(=O)(=O)N(C)C[C@@H]1Oc2ccc(NC(=O)C3CC3)cc2CC(=O)N([C@H](C)CO)C[C@@H]1C", "growth inhibition call": "inactive"}, {"smiles": "C[C@@H]1CN([C@H](C)CO)C(=O)c2cccc(NC(=O)Nc3ccc4c(c3)OCO4)c2O[C@@H]1CN(C)C(=O)Nc1ccc(C(F)(F)F)cc1", "growth inhibition call": "inactive"}, {"smiles": "CC[C@@H](NC)C(=O)O", "growth inhibition call": "inactive"}, {"smiles": "C[C@H]1CN([C@@H](C)CO)C(=O)c2cc(NC(=O)Nc3ccc(C(F)(F)F)cc3)ccc2O[C@H]1CN(C)S(=O)(=O)c1ccc(F)cc1", "growth inhibition call": "inactive"}, {"smiles": "C[C@@H]1CN([C@@H](C)CO)C(=O)c2cc(NC(=O)C3CCCCC3)ccc2O[C@@H]1CN(C)Cc1ccc(Cl)c(Cl)c1", "growth inhibition call": "inactive"}, {"smiles": "Cc1nccn1CCc1nc(N)nc(N)n1", "growth inhibition call": "inactive"}, {"smiles": "CC1(C)OCC(CO)([N+](=O)[O-])CO1", "growth inhibition call": "inactive"}, {"smiles": "C[C@@H]1CN([C@H](C)CO)C(=O)c2cccc(NC(=O)c3ccncc3)c2O[C@@H]1CN(C)S(=O)(=O)c1ccccc1", "growth inhibition call": "inactive"}, {"smiles": "C[C@H]1CN([C@@H](C)CO)C(=O)c2cccc(NC(=O)Nc3ccc(C(F)(F)F)cc3)c2O[C@H]1CN(C)Cc1ccncc1", "growth inhibition call": "inactive"}, {"smiles": "C[C@H]1CN([C@@H](C)CO)S(=O)(=O)c2ccc(C#CC3CCCCC3)cc2O[C@@H]1CN(C)C(=O)Cc1ccncc1", "growth inhibition call": "inactive"}, {"smiles": "CN1CCN(C(=O)C[C@@H]2C=C[C@H](NS(=O)(=O)c3cccc(F)c3)[C@H](CO)O2)CC1", "growth inhibition call": "inactive"}, {"smiles": "CCCCCCc1nc(-c2ccc(-c3ccc(Cl)c(Cl)c3)o2)cc2c1[Si](C(C)C)(C(C)C)OC2", "growth inhibition call": "inactive"}, {"smiles": "COCC#Cc1cnc2c(c1)C(=O)N([C@H](C)CO)C[C@H](C)[C@@H](CN(C)C(C)=O)O2", "growth inhibition call": "inactive"}, {"smiles": "COc1ccc(S(=O)(=O)Nc2ccc3c(c2)C(=O)N([C@H](C)CO)C[C@H](C)[C@@H](CN(C)Cc2ccc(C(F)(F)F)cc2)OCCCC[C@H](C)O3)cc1", "growth inhibition call": "inactive"}, {"smiles": "CCCCc1oc2ccccc2c1C(=O)c1cc(I)c(OCCN(CC)CC)c(I)c1.Cl", "growth inhibition call": "inactive"}, {"smiles": "COCCOC(=O)N1C(=O)[C@@]2(c3cc(C#CCCO)ccc31)[C@H](C(=O)Nc1nc3ccccc3s1)[C@H]1C(=O)O[C@H](c3ccccc3)[C@H](c3ccccc3)N1[C@@H]2c1ccc(O)cc1", "growth inhibition call": "inactive"}, {"smiles": "CC1CCC(NC(=O)N(CCCl)N=O)CC1", "note": "(configuration not stated)", "growth inhibition call": "inactive"}, {"smiles": "CCCNC(=O)Nc1ccc2c(c1)OC[C@H](C)N(C(=O)C1CCOCC1)C[C@@H](C)[C@@H](OC)CN(C)C2=O", "growth inhibition call": "inactive"}, {"smiles": "Cc1noc(C)c1NC(=O)N(C)C[C@H]1Oc2ccc(NS(=O)(=O)c3cccs3)cc2CC(=O)N([C@@H](C)CO)C[C@H]1C", "growth inhibition call": "inactive"}, {"smiles": "Cl.Clc1cccc(Cl)c1N=C1NCCN1", "growth inhibition call": "inactive"}, {"smiles": "OCCN1CCN(c2ncnc3c2ncn3[C@H]2CN(Cc3ccc(F)cc3)C[C@@H](CO)O2)CC1", "growth inhibition call": "inactive"}, {"smiles": "C[C@@H]1CCCCO[C@H](CN(C)Cc2ccc3c(c2)OCO3)[C@@H](C)CN([C@H](C)CO)C(=O)c2cc(NC(=O)Nc3ccc(C(F)(F)F)cc3)ccc2O1", "growth inhibition call": "inactive"}, {"smiles": "C[C@H](CO)N1C[C@H](C)[C@@H](CN(C)Cc2ccc(Oc3ccccc3)cc2)Oc2c(NC(=O)CCCCCC(=O)Nc3ccccc3N)cccc2C1=O", "growth inhibition call": "inactive"}, {"smiles": "C[C@@H](O)C#Cc1ccc2c(c1)O[C@@H](CN(C)C(=O)c1ccncc1)[C@@H](C)CN([C@@H](C)CO)S2(=O)=O", "growth inhibition call": "inactive"}]}]}
